Measured values reported in ChEMBL document CHEMBL4888484, “Replenishing the malaria drug discovery pipeline: Screening and hit evaluation of the MMV Hit Generation Library 1 (HGL1) against asexual blood stage Plasmodium falciparum ,using a nano luciferase reporter read-out” (2022).
Out of some 150,000 compounds screened, about 540 (0.36%) showed an effect of 50% or more. The list shows a part of the results.

These compounds were tested on Plasmodium falciparum (assay: Primary screen in NF54 nanoGlo assay, in single point, at 2uM, 72h; a lower Z score goes with more inhibition). Conditions: timepoint 72 hour.
Type: functional, Erythrocyte
Cc1noc(CNC(=O)c2ccc(Br)o2)n1 was tested, and the “% Inhibition” value was -18% and the Z score was 2.62. In the case of COc1ccccc1-n1c(=O)n(Cc2cccc(F)c2)c(=O)c2c(C(=O)N3CCCC3)cc(C)nc21, the “% Inhibition” value is reported as -3% and the Z score is reported as 0.35. For CN(C)C(=O)C1CCN(Cc2coc3ccccc23)CC1, the “% Inhibition” value was -9% and the Z score was 1.42. With CC1CCCC(C)N(C(=O)c2cc3c(ccc4ccccc43)[nH]2)C1 (stereo not given) the “% Inhibition” value was 6% and the Z score was -0.97. In the case of Cc1noc(C)c1CN(C)C(=O)NCCn1cncn1, the “% Inhibition” value is reported as -14% and the Z score is reported as 2.08. In the case of Cc1c(C)c2c(c(C)c1O)CC[C@@](C)(C(=O)N(CCO)Cc1ccc(F)cc1)O2, the “% Inhibition” value is reported as -7% and the Z score is reported as 1.37. For OCCOc1cccc(CN(Cc2cccnc2)C[C@H]2CCCN(C3CCCCC3)C2)c1, the “% Inhibition” value was 10% and the Z score was -1.33. With O=C(NCCc1c[nH]c2ccccc12)C1CC2CCC1C2 (stereo not given) the “% Inhibition” value was -6% and the Z score was 0.61. In the case of CNC/C=C/COc1ccc(C(C)C)cc1, the “% Inhibition” value is reported as -7% and the Z score is reported as 0.73. With COc1ccc(C2CC(=O)N(Cc3ccccc3Cl)C(=O)C2)cc1OC the “% Inhibition” value was -5% and the Z score was 0.64. In the case of Cc1sc(C(=O)O)cc1CN1CCC[C@H](c2nc(C(C)C)cs2)C1, the “% Inhibition” value is reported as -8% and the Z score is reported as 1.27. For Cc1ccsc1CN(C(=O)c1cccc[n+]1[O-])C(C)C, the “% Inhibition” value was 39% and the Z score was -5.57. CC(C)(C)OC(=O)Nc1ccccc1O was tested, and the “% Inhibition” value was -10% and the Z score was 1.4. O[C@H](COc1ccc2cc(Br)ccc2c1)CN1CCN(c2ccccn2)CC1 was tested, and the “% Inhibition” value was 2% and the Z score was -0.44. Clc1ccc(N2CCN(c3cc(-n4ccnc4)ncn3)CC2)cc1 was tested, and the “% Inhibition” value was 8% and the Z score was -1.07. CC(C)c1nnc([C@@H]2CCCN2C(=O)NCc2ccco2)[nH]1 was tested, and the “% Inhibition” value was -9% and the Z score was 1.11. For Cc1cc(NC(=O)N2CC(C)(C)[C@@H]3CCC[C@@H]32)c(=O)n(C)c1, the “% Inhibition” value was -10% and the Z score was 2.05. For CN(C)C(=O)N1CCC(c2nc([C@@H]3CN(Cc4ccccc4)CCO3)no2)CC1, the “% Inhibition” value was 3% and the Z score was -0.33. In the case of Cc1cccc(OCCCNC(=O)CO)c1C, the “% Inhibition” value is reported as -2% and the Z score is reported as 0.26. Fc1ccc(OCCOCCN2CCNCC2)cc1 was tested, and the “% Inhibition” value was -27% and the Z score was 3.11. In the case of CC1=C(C)C[C@@](C#N)(C(F)(F)F)[C@](C#N)(C(F)(F)F)C1, the “% Inhibition” value is reported as -4% and the Z score is reported as 0.52. In the case of COC[C@H]1CCCN1Cc1nc(C2(O)CCN(CC3CCCCC3)CC2)cs1, the “% Inhibition” value is reported as 1% and the Z score is reported as -0.09. With CCCN(CC(=O)N1CCn2cccc2[C@H]1c1cccc(F)c1)C(=O)c1ccc(Cl)cc1 the “% Inhibition” value was -10% and the Z score was 1.64. With O=C(c1cc2c(ccc3ccccc32)[nH]1)N1CCC2(CCNCC2)CC1 the “% Inhibition” value was 4% and the Z score was -0.81. CCCc1cnc(NCc2cncs2)s1 was tested, and the “% Inhibition” value was -8% and the Z score was 1.17. With Cc1cc(C(=O)N[C@@H](CC(F)(F)F)c2ccc(Cl)cc2)n(C)n1 the “% Inhibition” value was -8% and the Z score was 1.55. COC(=O)c1ncccc1OCc1cc(C)no1 was tested, and the “% Inhibition” value was 9% and the Z score was -1.63. NC(=O)C1(NC(=O)CN2CCN(Cc3ccccc3)CC2)CCOCC1 was tested, and the “% Inhibition” value was -9% and the Z score was 1.62. For COC(=O)C1CCC(NC(=O)NCC(F)F)C1 (stereo not given), the “% Inhibition” value was -4% and the Z score was 0.65. In the case of CC(C)CN1CCN(c2nccn(C3CC3)c2=O)CC1=O, the “% Inhibition” value is reported as 7% and the Z score is reported as -0.93. In the case of COc1ccc(CN2C(=O)N[C@@H](CC(=O)Nc3ccc(OC)cc3OC)C2=O)cc1, the “% Inhibition” value is reported as -3% and the Z score is reported as 0.5. With CCOC[C@H]1CCN(C(=O)C2(O)CN(C(=O)OC(C)(C)C)C2)C1 the “% Inhibition” value was -4% and the Z score was 0.81. With COc1ccc(CNC(=O)N(CCN2CCCC2)Cc2ccc(Cl)cc2)cc1OC the “% Inhibition” value was -6% and the Z score was 0.65. Cn1nc(C(=O)Nc2ccncc2)cc1C(=O)Nc1ccncc1 was tested, and the “% Inhibition” value was 32% and the Z score was -3.61. For Cc1ccc(C(=O)N2CCC[C@@]3(CCC(=O)N(CCN(C)C)C3)C2)cc1O, the “% Inhibition” value was -2% and the Z score was 0.27. For O=C(O)C[C@@H]1CCN(C(=O)Cc2ccccc2)C[C@@H]1CCN1CCN(c2ccccc2)CC1, the “% Inhibition” value was -11% and the Z score was 1.77. In the case of Cc1cccc(OCc2nc(CN(CCN3CCOCC3)C(=O)c3ccccc3F)cs2)c1, the “% Inhibition” value is reported as -3% and the Z score is reported as 0.5. CC(C)N1CCC[C@H]1c1nc(-c2ccc(N(C)C)nc2)no1 was tested, and the “% Inhibition” value was -5% and the Z score was 0.6. N#Cc1ccc(CN2C(=O)NC(C3CC3)(C3CC3)C2=O)cc1 was tested, and the “% Inhibition” value was -8% and the Z score was 0.75. For CCCCN(CCCC)C(=O)[C@H]1CCCS(=O)(=O)C1, the “% Inhibition” value was 0% and the Z score was -0.03. CO[C@H]1C[C@H]2CC[C@@H](C1)N2C(=O)c1oc(C)nc1C was tested, and the “% Inhibition” value was -4% and the Z score was 0.73. Cn1c(C(=O)N[C@H]2CCCNC2=O)cc2ccc(Cl)cc21 was tested, and the “% Inhibition” value was 0% and the Z score was -0.02. CC(C(=O)N1CCOCC1C#N)c1cccs1 (stereo not given) was tested, and the “% Inhibition” value was -9% and the Z score was 1.42. Cc1cc2c(cc1-c1c(-c3ccccc3)ncn1[C@H](C)C(N)=O)OCO2 was tested, and the “% Inhibition” value was 11% and the Z score was -1.29. In the case of O=S(=O)(c1cccc(Br)c1)N1CCN(CN2CCOC2=S)CC1, the “% Inhibition” value is reported as -13% and the Z score is reported as 1.49. In the case of Cc1nnc(-c2cccc(NC(=O)[C@@H]3CCCCN3C(=O)C3=CCCCC3)c2)s1, the “% Inhibition” value is reported as 7% and the Z score is reported as -0.85. For N[C@H](C(=O)NCC(F)(F)F)C1CCC1, the “% Inhibition” value was -5% and the Z score was 0.58. In the case of O=C(N[C@H]1CN[C@H](C(=O)NCc2noc(-c3ccco3)n2)C1)c1ccc(F)cc1, the “% Inhibition” value is reported as -5% and the Z score is reported as 0.88. For CO/C(=N/C(=O)c1cccc(OC)c1)NCCc1ccc(OC)c(OC)c1, the “% Inhibition” value was 2% and the Z score was -0.36. In the case of CC(C)(C)C(=O)N1CC(N2CCc3ccccc3C2)C1, the “% Inhibition” value is reported as 0% and the Z score is reported as 0.02. With CN(CCn1cccn1)c1cc(C#N)c2ccccc2n1 the “% Inhibition” value was -9% and the Z score was 1.39. COc1ccc(CN2CCC3(CC2)C[C@@H]3C(=O)Nc2cccc(F)c2)cc1C was tested, and the “% Inhibition” value was 2% and the Z score was -0.25. In the case of COCCn1cc(NC(=O)N(C)C2CCCCCC2)cn1, the “% Inhibition” value is reported as -6% and the Z score is reported as 0.83. For COc1cccc2c(N3CCC(n4ccnn4)CC3)nccc12, the “% Inhibition” value was -18% and the Z score was 1.92. O=S(=O)(Nc1nnc(C2CC2)o1)c1cccc(F)c1F was tested, and the “% Inhibition” value was -1% and the Z score was 0.11. O=C(Cc1nnc(-c2ccccc2)o1)N1CCCCCC1 was tested, and the “% Inhibition” value was -7% and the Z score was 0.9. CCS(=O)(=O)c1ccc(Cl)cc1C(=O)N[C@@H](C)c1cc(C)sc1C was tested, and the “% Inhibition” value was 9% and the Z score was -1.39. C[C@@H]1Oc2ccc(NS(=O)(=O)c3ccc(F)cc3)cc2CN(Cc2cc(F)cc(F)c2)C1=O was tested, and the “% Inhibition” value was 11% and the Z score was -1.29. For Clc1ccc(/C2=N/CCCCCN2)cc1, the “% Inhibition” value was 2% and the Z score was -0.2. In the case of Cc1nc[nH]c1CN1C[C@H]2CC[C@@H](C1)N(Cc1ccc(C(C)C)cc1)C2, the “% Inhibition” value is reported as 1% and the Z score is reported as -0.15. In the case of CC1(C)COc2c(C(=O)N3CCCN(C(N)=O)CC3)cccc21, the “% Inhibition” value is reported as -6% and the Z score is reported as 1.2. In the case of CC(C)[C@@H](C(=O)OCc1nncn1C)N(C)C, the “% Inhibition” value is reported as -15% and the Z score is reported as 1.8. With CC(C)(C(=O)N[C@H]1CCc2ccccc21)S(=O)(=O)C1CC1 the “% Inhibition” value was -4% and the Z score was 0.71. O=C(Nc1ccc(F)cc1)Nc1ccc(-c2cc3cc(F)ccc3[nH]2)cc1 was tested, and the “% Inhibition” value was -5% and the Z score was 0.72. CN1C[C@H]2CC[C@@H](C1)N(C(=O)c1ccccc1N(C)C)C2 was tested, and the “% Inhibition” value was -1% and the Z score was 0.22. In the case of Cn1nc(CCC(=O)N2CCCC2)c2c1CCN(C(=O)C1CCCC1)C2, the “% Inhibition” value is reported as -2% and the Z score is reported as 0.36. With CCC1CN(C(=O)NCc2ccc(C)nc2)CC(C)O1 (stereo not given) the “% Inhibition” value was 2% and the Z score was -0.28. COc1ccc(S(=O)(=O)Oc2ccccc2CN(Cc2ccc(F)cc2)C(=O)CC(C)C)cc1 was tested, and the “% Inhibition” value was -9% and the Z score was 1.28. For Cc1nnc([C@@]23COC[C@@H]2CN(Cc2ccccc2OC(C)C)C3)o1, the “% Inhibition” value was -15% and the Z score was 2.39. COC(=O)[C@H]1CCc2nnc(Cc3ccccc3F)n2CC1 was tested, and the “% Inhibition” value was -11% and the Z score was 1.71. In the case of CCc1cc(=O)c2ccccc2n1C[C@H](O)COC(C)C, the “% Inhibition” value is reported as -16% and the Z score is reported as 2.1. With COC[C@H](NC(=O)Nc1c(C)cccc1Cl)c1ccnn1C the “% Inhibition” value was 2% and the Z score was -0.29. In the case of CC(=O)NCc1ccc(C(=O)N[C@H]2CC[C@H](C)CC2)s1, the “% Inhibition” value is reported as -12% and the Z score is reported as 1.17. Cc1cc(CCNC(=O)c2cccc(Cl)c2)nn1C was tested, and the “% Inhibition” value was -8% and the Z score was 1.53. COc1ccnc(N2CCC3(CC2)NC(=O)N(C)C3=O)n1 was tested, and the “% Inhibition” value was -11% and the Z score was 1.48. For CS(=O)(=O)N[C@@H]1CC[C@H]2CCOc3ccccc3C(=O)N3CCN(CC4CCCCC4)C[C@H]3C(=O)NC[C@H]1O2, the “% Inhibition” value was 13% and the Z score was -1.51. Cc1nc(-c2cccs2)sc1C(=O)NC1CCCCC1 was tested, and the “% Inhibition” value was -13% and the Z score was 1.81. O=C(CN(Cc1ccsc1)C[C@H]1CCCO1)Nc1ccc(Cl)cn1 was tested, and the “% Inhibition” value was -8% and the Z score was 0.84. For O=C(NCCCCN1CCOCC1)c1ccccc1O, the “% Inhibition” value was -15% and the Z score was 1.55. For CC(C)NC(=O)N1CC=C(c2cn(C(C)C)c3ncccc23)CC1, the “% Inhibition” value was 6% and the Z score was -1.1. For CC1CCN(C(=O)c2ccc(NC[C@H](O)c3ccco3)nc2)CC1, the “% Inhibition” value was 3% and the Z score was -0.29. In the case of CC1CC2CCCCC2N1C(=O)Nc1cc(C(=O)N(C)C)ccn1 (stereo not given), the “% Inhibition” value is reported as -11% and the Z score is reported as 0.96. Cc1ccc(N(C)C(=O)C2CCCN(S(=O)(=O)c3cc4c(cc3C)NC(=O)C(C)O4)C2)cc1 (stereo not given) was tested, and the “% Inhibition” value was 1% and the Z score was -0.22. For COCCOc1ccnc(-c2noc([C@@H]3CCCN3Cc3ccc(C(=O)O)cc3)n2)c1, the “% Inhibition” value was 14% and the Z score was -1.69. In the case of COc1ccc(C(=O)Nc2ccc(N3CCC(C)CC3)c(C(=O)NCc3ccc(F)cc3)c2)c(OC)c1, the “% Inhibition” value is reported as -8% and the Z score is reported as 1.09.
